In paper PMC4336329 (PLoS ONE, 2015):
Hit rate of the full screen: of about 310,000 compounds, about 14,000 (4.5%) showed an effect of 50% or more. Effects have a minus sign here. The list shows a part of the results.

What follows are compounds tested against human ether-à-go-go-related gene (hERG) potassium channel (human, UniProt Q12809) (assay: primary screen, population patch clamp on CHO cells stably expressing hERG).
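Note: peak tail current of the secondary pulse compared with the same well before compound.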

Sequence of human ether-à-go-go-related gene (hERG) potassium channel (Q12809 whole entry, looked up): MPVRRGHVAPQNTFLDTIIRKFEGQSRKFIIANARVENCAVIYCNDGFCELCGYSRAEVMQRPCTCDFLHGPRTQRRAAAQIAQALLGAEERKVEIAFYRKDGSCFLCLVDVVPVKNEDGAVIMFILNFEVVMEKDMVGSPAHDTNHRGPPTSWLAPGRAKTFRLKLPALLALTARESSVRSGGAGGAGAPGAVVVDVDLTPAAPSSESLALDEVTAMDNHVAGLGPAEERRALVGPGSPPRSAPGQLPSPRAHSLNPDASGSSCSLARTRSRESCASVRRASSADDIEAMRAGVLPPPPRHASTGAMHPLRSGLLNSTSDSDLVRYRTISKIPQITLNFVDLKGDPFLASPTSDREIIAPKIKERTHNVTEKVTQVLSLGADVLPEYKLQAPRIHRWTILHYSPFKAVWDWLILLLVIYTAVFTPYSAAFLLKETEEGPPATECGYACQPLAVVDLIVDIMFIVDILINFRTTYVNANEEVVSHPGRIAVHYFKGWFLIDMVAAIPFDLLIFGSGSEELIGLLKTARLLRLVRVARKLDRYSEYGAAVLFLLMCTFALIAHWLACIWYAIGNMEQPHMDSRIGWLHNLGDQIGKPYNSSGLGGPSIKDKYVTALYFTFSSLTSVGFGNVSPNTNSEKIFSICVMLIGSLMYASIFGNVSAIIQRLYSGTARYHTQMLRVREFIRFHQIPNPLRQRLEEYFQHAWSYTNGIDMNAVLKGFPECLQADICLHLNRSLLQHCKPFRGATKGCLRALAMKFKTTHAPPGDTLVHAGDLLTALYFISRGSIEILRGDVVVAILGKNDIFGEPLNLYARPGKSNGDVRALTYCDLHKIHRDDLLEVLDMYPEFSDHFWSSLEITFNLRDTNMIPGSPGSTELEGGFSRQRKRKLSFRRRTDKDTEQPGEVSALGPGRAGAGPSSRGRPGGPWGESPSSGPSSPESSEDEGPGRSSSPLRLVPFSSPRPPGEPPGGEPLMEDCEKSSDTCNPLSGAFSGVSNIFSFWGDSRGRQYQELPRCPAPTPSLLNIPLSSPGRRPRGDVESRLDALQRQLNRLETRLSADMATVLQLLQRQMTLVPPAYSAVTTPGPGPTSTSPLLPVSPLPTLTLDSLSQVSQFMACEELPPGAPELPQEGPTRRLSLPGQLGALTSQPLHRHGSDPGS

SMILES	hERG current change (%, negative = inhibition) at 10uM [%]
Oc1ccc(-c2cn3c(n2)SCC3)cc1O	-6.17
O=S(=O)(c1ccc(F)cc1)N1CCN(CCc2ccccc2)CC1	-8.48
CC(C)=CCN1CCN(CCCn2cccn2)CC1CCO (centres unmarked)	-11.8
COc1ccc(/C=N/N2CCN(Cc3ccc(C)cc3)CC2)cc1Br	15.5
O=C(N/N=C\c1ccc(-c2ccc([N+](=O)[O-])cc2)o1)C1COc2ccccc2O1 (centres unmarked)	-7.36
O=C(NC1CCN(C(=O)Nc2cccc(Cl)c2)CC1)c1ccco1	-20.5
Cc1cccc(CCNC(=O)C2CCCN(c3ncnc4c3nc3n4CCCCC3)C2)c1 (centres unmarked)	-59.8
Nc1c(Cl)cc(Cl)cc1C(=O)OCC(=O)N1CCCC1=O	3.97
COc1ccc(C(=O)OCC(=O)Nc2sccc2C(N)=O)cc1OC	-0.284
CCOc1ccc(NC(=O)CSc2nc(-c3cccs3)cc(C(F)(F)F)n2)c([N+](=O)[O-])c1	-2.63
CCNC(=S)N1CCN(CC(=O)Nc2ccc(Br)cc2)CC1	-61.4
CC1CN(S(=O)(=O)Cc2ccccc2)CC(C)O1 (centres unmarked)	-10.4
COc1cccc(C2c3[nH]c4ccccc4c3CCN2C(=O)c2ccccc2F)c1OC (centres unmarked)	25.5
COC(=O)c1c(Oc2nc(OC)cc(OC)n2)cccc1Oc1nc(OC)cc(OC)n1	-8.4
COc1ccccc1NC(=S)NCCC(c1ccccc1)c1ccccc1	6.56
Cc1ccc(NC(=O)CSc2nc3sc(C)cc3c(=O)n2C)cc1	-5.79
CCN1C(=O)C(O)(CC(=O)c2c(C)coc2C)c2ccccc21 (centres unmarked)	23.4
COc1ccc(NC(=O)Nc2nnc(-c3ccccc3SCc3ccccc3)s2)cc1	13.6
CC(C)C(=O)N1CCN(c2ccccc2NC(=O)c2cccc3ccccc23)CC1	-32.9
CCc1cccc(C)c1NC(=O)C1=C(C(=O)O)CCCC1	2.25
O=C1N[C@@H](Cc2cnc[nH]2)C(=O)N2CCC[C@@H]12	25.3
C=CCC(C=C)[N+]1(CC(=O)OC)CCCCC1.[Br-] (centres unmarked)	41.8
COc1ccc(-n2c(CN3CCOCC3)nc3ccc([N+](=O)[O-])cc3c2=O)c(OC)c1	-3.17

SMILES	hERG current change (%, negative = inhibition) at 10uM [%]
Cc1ccc(C(=O)O)cc1NS(=O)(=O)c1ccc2c(c1)oc(=O)n2C	13.1
CCNc1nc(SC(C)C(=O)OC)nc(N2CCOCC2)n1 (centres unmarked)	6.95
Cn1c(CCC(N)=O)nnc1SCC(=O)Nc1ccccc1C(=O)NC1CC1	-3.74
CC(C)N(Cc1nc(-c2ccc3c(c2)OCO3)no1)Cc1nccn1C	-11.6
CCOC(=O)C1=C(C)N=C2SCCC(=O)N2[C@@H]1/C=C/c1ccccc1	-7.79
Cc1nn(C(C)C(=O)NC2CC2)c(=O)c2nn(-c3ccccc3)c(C)c12 (centres unmarked)	21.5
COc1ccc(S(=O)(=O)N2CCCC2CNC(=O)C(=O)Nc2cccc(F)c2)cc1 (centres unmarked)	-16
O=C(Nc1cccc(O)c1)c1cccc(NC(=O)c2cccs2)c1	-15.5
Cc1ccc2[nH]cc(CCNC(=O)c3ccc4c(c3)OCO4)c2c1	9.77
O=C(COC(=O)/C=C/c1ccc([N+](=O)[O-])cc1)NCc1ccco1	-6.83
COc1ccccc1N1CCN(C(=O)CSc2nc3ccccc3nc2N2CCC(C)CC2)CC1	0.304
CCOC(=O)C1CCN(C(=O)C2CCN(c3nnc(-n4cccc4)s3)CC2)CC1	-62.5
O=C(NCC(c1ccco1)N1CCc2ccccc2C1)c1ccccc1Cl (centres unmarked)	-17.7
Cc1ccc(NC(=O)CSc2nnc(C3CC3)n2CC2CCCO2)cc1C (centres unmarked)	-24
O=C(Nc1ccccc1)OC1CC2CC1C1CCCC21 (centres unmarked)	14.3
CCOC(=O)C1=NN(C(=O)COc2ccccc2)C(O)(c2ccc(Br)cc2)C1 (centres unmarked)	-27.9
O=C(CN1CCN(c2ccccn2)CC1)Nc1ccccc1C(=O)Nc1ccccc1	-42
COc1cc(OC)c(OC)cc1CN1CCN(c2ccc(F)cc2)CC1	-68.5
Cc1ccc(NS(=O)(=O)c2c(C(=O)N3CCCC3)c(C)n(C)c2C)cc1	7.79
C(=N\n1cnnc1)/c1cn(-c2cccs2)nc1-c1ccccc1	-24.6
Cc1cc(OCC(=O)NCCN2CCOCC2)ccc1Br	-5
CCOC(=O)N1CCN(C(=O)C(c2ccccc2)c2ccccc2)CC1	9.71
CCN(C(=O)CN1CCN(c2ccccc2F)CC1)c1c(N)n(Cc2ccccc2)c(=O)[nH]c1=O	6.68

SMILES	hERG current change (%, negative = inhibition) at 10uM [%]
CCS(=O)(=O)c1ncc(CO)n1CCc1ccccc1	11
CCOC(=O)c1oc2ccccc2c1NC(=O)c1ccc(Cl)s1	11.7
CCCCCC(C)NC(=O)c1cc(S(=O)(=O)N2CCCCC2)ccc1N1CCOCC1 (centres unmarked)	-70.9
CCOC(=O)C1(Cc2cccc(Cl)c2)CCCN(C(=O)CCC(=O)N(C)C)C1 (centres unmarked)	7.24
Cc1ccc(S(=O)(=O)Nc2ccc(Cl)cn2)cc1	12.2
Cc1ccsc1C(=O)OCC(=O)NCc1ccc2c(c1)OCO2	15.4
COc1ccc(N(CC(=O)Nc2ccc3c(c2)OCO3)S(C)(=O)=O)c(OC)c1	2.4
COc1cccc(NC(=O)C(=O)NCC(c2ccco2)N2CCc3ccccc3C2)c1 (centres unmarked)	-9.29
CCc1ccc(C2(C)SC(NC(C)=O)=NN2C(C)=O)cc1 (centres unmarked)	4.03
Cc1cccc(OCc2nnc(SCC(=O)Nc3ccc(C)c(Cl)c3)o2)c1	1.98
COc1ccccc1NC(=O)C1C2CCCCC21 (centres unmarked)	-12.5
Cc1cccc(NC(=O)CCNC(=O)c2ccc(Br)cc2)c1	12.7
Nc1nc(-c2ccc3c(c2)NC(=O)CO3)cs1	15.5
COc1nccc(NCc2ccccc2)c1C#N	5.72
Cc1onc(-c2c(Cl)cccc2Cl)c1C(=O)N=S(C)(=O)c1ccccc1 (centres unmarked)	4.33
CCN(C(=O)c1cc2c(=O)n3ccccc3nc2s1)C1CCCCC1	-2.99
CCN(CC)C(=O)N1CCN(Cc2ccc3c(c2)OCO3)CC1	10.1
CN(C)c1ccc(/C=C/C(=O)c2ccc(O)cc2)cc1[N+](=O)[O-]	2.72
Cl.O=C(c1cc(-c2cccs2)nc2ccccc12)N1CCN(c2ccccc2)CC1	9.68
CCOC(=O)CC1C(C(=O)OCC)ON2OC(C(=O)OC)C(C(=O)OCC)C12 (centres unmarked)	6.38
O=C(c1ccc2c3c(cccc13)CC2)C1CCCN(Cc2ccncc2)C1 (centres unmarked)	-51.5
O=C(C/C=N\OCc1ccc([N+](=O)[O-])cc1)Nc1ccc(Cl)cc1	-13.8
Cc1ccc(C2=NOC(C)(c3nnc(-c4cccc(Cl)c4)o3)C2)cc1 (centres unmarked)	6.17

SMILES	hERG current change (%, negative = inhibition) at 10uM [%]
Cn1c2ccccc2c(=O)c2c(=O)n(-c3ccccc3)c(-c3ccc(C(C)(C)C)cc3)nc21	-7.64
O=C(CC(=O)N/N=C/c1c(F)cccc1Cl)NCCc1ccccc1	-2.75
Cc1ccc(S(=O)(=O)N(C)c2ccc(OC(=O)CN3C(=O)NC4(CCCC4)C3=O)cc2)cc1	-14.4
COc1ccc(OCC(=O)NNc2nc3ccccc3s2)cc1	2.7
O=[N+]([O-])c1cc(-c2cnc3ccccc3n2)ccc1Oc1ccc(F)cc1	3.18
Nc1nc(NCc2ccco2)nc(Nc2ccc(F)cc2)c1[N+](=O)[O-]	12.7
Cc1cccc(N(CC(=O)N2CCN(C)CC2)S(=O)(=O)c2ccccc2)c1	8.59
CCCCN(CC)CCNC(=O)c1cc2c(=O)[nH]c3ccccc3c2s1	-25.8
O=C(CCCC(=O)N1CCCC1)N1CCCC1	17.5
COc1ccccc1C(=O)NNC(=O)c1ccc(Cl)cc1	19.4
O=C(NN1C(=O)C2C(C1=O)C1C=CC2C12CC2)c1ccccc1 (centres unmarked)	-39.2
COCCNS(=O)(=O)c1cc(OC)ccc1OC	23.8
CC(=O)Nc1ccc(S(=O)(=O)NCC(=O)OCC(=O)NC23CC4CC(CC(C4)C2)C3)cc1	-0.592
CC(=O)c1cccc(-n2nnnc2SCC(=O)N2CCCC2)c1	0.903
O=C(Nc1nc(-c2ccccc2)cs1)c1ccc(=O)[nH]c1	10.2
Cc1cc(Nc2ncc(Cl)cc2Cl)n[nH]1	14.4
O=C(COC(=O)c1ccco1)Nc1nc2ccccc2s1	9.98
O=C(Cn1cnc2cc([N+](=O)[O-])ccc2c1=O)Nc1ccc(Br)cc1	6.78
COC(=O)CSc1ccc(-c2nc3ccc(C)cc3[nH]2)cn1	-5.01
Cn1c(CSCc2ccc(F)cc2)nnc1SCC(=O)N1CCN(c2ccccc2)CC1	-70.7
